Results published in the supplement of paper PMC12423691.
The other results are listed elsewhere or left out. Binding of human transcription factors and regulators to the viral nucleoprotein by AlphaScreen, crude cell-free proteins, amounts not normalised, one pass. Fold of the Venus control; higher = more signal. No active / inactive call. Single-pass screen; sequences are the whole Swiss-Prot entries looked up by name.

B1: IRF9, Q00978 (protein)
chain: MASGRARCTRKLRNWVVEQVESGQFPGVCWDDTAKTMFRIPWKHAGKQDFREDQDAAFFKAWAIFKGKYKEGDTGGPAVWKTRLRCALNKSSEFKEVPERGRMDVAEPYKVYQLLPPGIVSGQPGTQKVPSKRQHSSVSSERKEEEDAMQNCTLSPSVLQDSLNNEEEGASGGAVHSDIGSSSSSSSPEPQEVTDTTEAPFQGDQRSLEFLLPPEPDYSLLLTFIYNGRVVGEAQVQSLDCRLVAEPSGSESSMEQVLFPKPGPLEPTQRLLSQLERGILVASNPRGLFVQRLCPIPISWNAPQAPPGPGPHLLPSNECVELFRTAYFCRDLVRYFQGLGPPPKFQVTLNFWEESHGSSHTPQNLITVKMEQAFARYLLEQTPEQQAAILSLV
B2: CHP1, Q99653 (protein)
chain: MGSRASTLLRDEELEEIKKETGFSHSQITRLYSRFTSLDKGENGTLSREDFQRIPELAINPLGDRIINAFFPEGEDQVNFRGFMRTLAHFRPIEDNEKSKDVNGPEPLNSRSNKLHFAFRLYDLDKDEKISRDELLQVLRMMVGVNISDEQLGSIADRTIQEADQDGDSAISFTEFVKVLEKVDVEQKMSIRFLH
B3: USF2, Q15853 (protein)
chain: MDMLDPGLDPAASATAAAAASHDKGPEAEEGVELQEGGDGPGAEEQTAVAITSVQQAAFGDHNIQYQFRTETNGGQVTYRVVQVTDGQLDGQGDTAGAVSVVSTAAFAGGQQAVTQVGVDGAAQRPGPAAASVPPGPAAPFPLAVIQNPFSNGGSPAAEAVSGEARFAYFPASSVGDTTAVSVQTTDQSLQAGGQFYVMMTPQDVLQTGTQRTIAPRTHPYSPKIDGTRTPRDERRRAQHNEVERRRRDKINNWIVQLSKIIPDCNADNSKTGASKGGILSKACDYIRELRQTNQRMQETFKEAERLQMDNELLRQQIEELKNENALLRAQLQQHNLEMVGEGTRQ
B4: FOXP2, O15409 (protein)
chain: MMQESATETISNSSMNQNGMSTLSSQLDAGSRDGRSSGDTSSEVSTVELLHLQQQQALQAARQLLLQQQTSGLKSPKSSDKQRPLQVPVSVAMMTPQVITPQQMQQILQQQVLSPQQLQALLQQQQAVMLQQQQLQEFYKKQQEQLHLQLLQQQQQQQQQQQQQQQQQQQQQQQQQQQQQQQQQQQQQQQQHPGKQAKEQQQQQQQQQQLAAQQLVFQQQLLQMQQLQQQQHLLSLQRQGLISIPPGQAALPVQSLPQAGLSPAEIQQLWKEVTGVHSMEDNGIKHGGLDLTTNNSSSTTSSNTSKASPPITHHSIVNGQSSVLSARRDSSSHEETGASHTLYGHGVCKWPGCESICEDFGQFLKHLNNEHALDDRSTAQCRVQMQVVQQLEIQLSKERERLQAMMTHLHMRPSEPKPSPKPLNLVSSVTMSKNMLETSPQSLPQTPTTPTAPVTPITQGPSVITPASVPNVGAIRRRHSDKYNIPMSSEIAPNYEFYKNADVRPPFTYATLIRQAIMESSDRQLTLNEIYSWFTRTFAYFRRNAATWKNAVRHNLSLHKCFVRVENVKGAVWTVDEVEYQKRRSQKITGSPTLVKNIPTSLGYGAALNASLQAALAESSLPLLSNPGLINNASSGLLQAVHEDLNGSLDHIDSNGNSSPGCSPQPHIHSIHVKEEPVIAEDEDCPMSLVTTANHSPELEDDREIEEEPLSEDLE
B5: SNAPC2, Q13487 (protein)
chain: MKPPPRRRAAPARYLGEVTGPATWSAREKRQLVRLLQARQGQPEPDATELARELRGRSEAEIRVFLQQLKGRVAREAIQKVHPGGLQGPRRREAQPPAPIEVWTDLAEKITGPLEEALAVAFSQVLTIAATEPVTLLHSKPPKPTQARGKPLLLSAPGGQEDPAPEIPSSAPAAPSSAPRTPDPAPEKPSESSAGPSTEEDFAVDFEKIYKYLSSVSRSGRSPELSAAESAVVLDLLMSLPEELPLLPCTALVEHMTETYLRLTAPQPIPAGGSLGPAAEGDGAGSKAPEETPPATEKAEHSELKSPWQAAGICPLNPFLVPLELLGRAATPAR
B6: EDA2R, Q9HAV5 (protein)
chain: MDCQENEYWDQWGRCVTCQRCGPGQELSKDCGYGEGGDAYCTACPPRRYKSSWGHHRCQSCITCAVINRVQKVNCTATSNAVCGDCLPRFYRKTRIGGLQDQECIPCTKQTPTSEVQCAFQLSLVEADTPTVPPQEATLVALVSSLLVVFTLAFLGLFFLYCKQFFNRHCQRGGLLQFEADKTAKEESLFPVPPSKETSAESQVSENIFQTQPLNPILEDDCSSTSGFPTQESFTMASCTSESHSHWVHSPIECTELDLQKFSSSASYTGAETLGGNTVESTGDRLELNVPFEVPSP
B7: PARK2, O60260 (protein)
chain: MIVFVRFNSSHGFPVEVDSDTSIFQLKEVVAKRQGVPADQLRVIFAGKELRNDWTVQNCDLDQQSIVHIVQRPWRKGQEMNATGGDDPRNAAGGCEREPQSLTRVDLSSSVLPGDSVGLAVILHTDSRKDSPPAGSPAGRSIYNSFYVYCKGPCQRVQPGKLRVQCSTCRQATLTLTQGPSCWDDVLIPNRMSGECQSPHCPGTSAEFFFKCGAHPTSDKETSVALHLIATNSRNITCITCTDVRSPVLVFQCNSRHVICLDCFHLYCVTRLNDRQFVHDPQLGYSLPCVAGCPNSLIKELHHFRILGEEQYNRYQQYGAEECVLQMGGVLCPRPGCGAGLLPEPDQRKVTCEGGNGLGCGFAFCRECKEAYHEGECSAVFEASGTTTQAYRVDERAAEQARWEAASKETIKKTTKPCPRCHVPVEKNGGCMHMKCPQPQCRLEWCWNCGCEWNRVCMGDHWFDV
B8: IFI16, Q16666 (protein)
chain: MGKKYKNIVLLKGLEVINDYHFRMVKSLLSNDLKLNLKMREEYDKIQIADLMEEKFRGDAGLGKLIKIFEDIPTLEDLAETLKKEKLKVKGPALSRKRKKEVDATSPAPSTSSTVKTEGAEATPGAQKRKKSTKEKAGPKGSKVSEEQTQPPSPAGAGMSTAMGRSPSPKTSLSAPPNSSSTENPKTVAKCQVTPRRNVLQKRPVIVKVLSTTKPFEYETPEMEKKIMFHATVATQTQFFHVKVLNTSLKEKFNGKKIIIISDYLEYDSLLEVNEESTVSEAGPNQTFEVPNKIINRAKETLKIDILHKQASGNIVYGVFMLHKKTVNQKTTIYEIQDDRGKMDVVGTGQCHNIPCEEGDKLQLFCFRLRKKNQMSKLISEMHSFIQIKKKTNPRNNDPKSMKLPQEQRQLPYPSEASTTFPESHLRTPQMPPTTPSSSFFTKKSEDTISKMNDFMRMQILKEGSHFPGPFMTSIGPAESHPHTPQMPPSTPSSSFLTTKSEDTISKMNDFMRMQILKEGSHFPGPFMTSIGPAESHPHTPQMPPSTPSSSFLTTLKPRLKTEPEEVSIEDSAQSDLKEVMVLNATESFVYEPKEQKKMFHATVATENEVFRVKVFNIDLKEKFTPKKIIAIANYVCRNGFLEVYPFTLVADVNADRNMEIPKGLIRSASVTPKINQLCSQTKGSFVNGVFEVHKKNVRGEFTYYEIQDNTGKMEVVVHGRLTTINCEEGDKLKLTCFELAPKSGNTGELRSVIHSHIKVIKTRKNKKDILNPDSSMETSPDFFF

The binders below were run against nucleoprotein N of Crimean-Congo hemorrhagic fever virus (assay: AlphaScreen luminescence signal relative to Venus negative control (fold); higher = stronger binding to CCHFV N).
Experimental: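 AlphaScreen binding of cell-free made, FLAG-GST-tagged human transcription factors and regulators (crude translation products) to biotinylated N protein; signal as fold of the FLAG-GST-Venus control. One pass.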

Row | Binder | AlphaScreen luminescence signal
1 | B1 | 2.42
2 | B2 | 1.91
3 | B3 | 2
4 | B4 | 2.79
5 | B5 | 2.42
6 | B6 | 2.37
7 | B7 | 1.58
8 | B8 | 3.53
